# Structures can show the parent of a compound that is named as a salt. The list shows a part of the results. Many values rest on one well or one pass, so single values are uncertain.
# Experiments:
# Experiment in all cases: cell viability relative to vehicle (% of vehicle); basal-like triple-negative breast cancer lines; higher = less cytotoxic
# Conditions in all cases: 10 µM; 72 h
# [1] = tested on: HCC-1143
# [2] = tested on: HCC-1187
# [3] = tested on: MDA-468
# [4] = tested on: SUM-149
# 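Also: stably firefly luciferase-GFP labeled cells in 96-well plates, viability read as luciferase photon flux after d-luciferin addition, treated wells normalized to vehicle wells, single-dose high-throughput screen.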
Structure (SMILES),cell viability [1],cell viability [2],cell viability [3],cell viability [4]
CCC1(c2ccccc2)C(=O)NCNC1=O [Primidone],82.3,90.7,99.6,95.9
O=S(=O)([O-])CCSSCCS(=O)(=O)[O-].[Na+].[Na+] [Dimesna],92.4,117,103,92.9
COc1c2ccoc2cc2oc(=O)ccc12 [5-Methoxypsoralen],77.3,87.6,131,112
COc1cc(Nc2ncc(F)c(Nc3ccc4c(n3)N(COP(=O)(O)O)C(=O)C(C)(C)O4)n2)cc(OC)c1OC [Fostamatinib (R788)],41,49.3,37.8,30.9
COc1c(C)c2c(c(O)c1CC=C(C)CCC(=O)O)C(=O)OC2 [Mycophenolic acid],62.9,71.8,68.4,59.6
CC(C)OC(=O)C(C)NP(=O)(OCC1OC(n2ccc(=O)[nH]c2=O)C(C)(F)C1O)Oc1ccccc1 (stereo not drawn),74.3,97.4,94.7,104
CCCCOc1ccc(CC(=O)NO)cc1 [Bufexamac],119,86.4,123,144
COc1cc(C2c3cc4c(cc3C(OC3OC5COC(C)OC5C(O)C3O)C3COC(=O)C23)OCO4)cc(OC)c1O (stereo not drawn) [Etoposide],94.2,47.9,58.9,82.5
CN1C[C@@H]2c3ccccc3Oc3ccc(Cl)cc3[C@H]2C1.O=C(O)/C=C/C(=O)O [Asenapine],83.5,97.2,95.4,101
O=C(O)c1cc(O)c(O)c(O)c1 [Gallic acid],70.6,81.7,100,84.9
c1ccc(-c2ccc(C(c3ccccc3)n3ccnc3)cc2)cc1 (stereo not drawn) [Bifonazole],86.3,99.5,130,140
Cc1[nH]c(=O)c(C#N)cc1-c1ccncc1 [Milrinone],83.6,96.1,100,187
CN1C2CCCC1CC(NC(=O)c1nn(C)c3ccccc13)C2.Cl (stereo not drawn) [Granisetron HCl],101,94.1,99.4,105
O=C(O)c1cccnc1 [Nicotinic Acid],69,91,95.2,105
S=P(N1CC1)(N1CC1)N1CC1,96,100,101,126
CCOC(=O)c1ccc(N)cc1 [Benzocaine],131,138,112,115
Nc1nc(=O)c2ncn(COCCO)c2[nH]1 [Acyclovir],81.5,94.2,121,94.8
Clc1ccc(C(Cn2ccnc2)OCc2csc3c(Cl)cccc23)c(Cl)c1.O=[N+]([O-])O (stereo not drawn) [Sertaconazole nitrate],88.7,119,119,112
CC(CCC(=O)O)C1CCC2C3C(O)CC4CC(O)CCC4(C)C3CCC12C (stereo not drawn) [Ursodiol],81,85.8,94,119
CN1CCN(CCOc2cc(OC3CCOCC3)c3c(Nc4c(Cl)ccc5c4OCO5)ncnc3c2)CC1 [Saracatinib (AZD0530)],87.7,108,95.6,37.6
COc1cc(C(=O)O)ccc1NC(=O)C1NC(CC(C)(C)C)C(C#N)(c2ccc(Cl)cc2F)C1c1cccc(Cl)c1F (stereo not drawn),117,76.6,95.4,109
COc1ccccc1OCCNCC(O)COc1cccc2[nH]c3ccccc3c12 (stereo not drawn) [Carvedilol],102,80.4,98.6,48
Cc1cccc(N(C)C(=S)Oc2ccc3ccccc3c2)c1 [Tolnaftate],94.9,87.2,111,107
Nc1ccn(C2OC(CO)C(O)C2O)c(=O)n1 (stereo not drawn) [Cytarabine],74.3,76.1,79.1,191
C=C1C(CO)C(O)CC1n1cnc2c(=O)nc(N)[nH]c21.O (stereo not drawn) [Entecavir Hydrate],74.2,91.9,80.7,97.2
O=C(O)C=CC(=O)O.OCCOCCN1CCN(C2=Nc3ccccc3Sc3ccccc32)CC1.OCCOCCN1CCN(C2=Nc3ccccc3Sc3ccccc32)CC1 [Quetiapine Fumarate],114,126,99.3,97.8

Structure (SMILES),cell viability [1],cell viability [2],cell viability [3],cell viability [4]
Cl.NC1=NCC2c3ccccc3Cc3ccccc3N12 (stereo not drawn) [Epinastine HCl],75.8,89.1,88.6,88.3
CC12CCC3c4ccc(O)cc4CC(CCCCCCCCCS(=O)CCCC(F)(F)C(F)(F)F)C3C1CCC2O (stereo not drawn) [Fulvestrant],98.8,84.4,67.3,101
CC[C@@]1(O)C(=O)OCc2c1cc1n(c2=O)Cc2cc3c(CN(C)C)c(O)ccc3nc2-1.Cl [Topotecan HCl],31.8,34,31.7,36.5
CC(C)(C)c1ccc(C(O)CCCN2CCC(C(O)(c3ccccc3)c3ccccc3)CC2)cc1 (stereo not drawn) [Terfenadine],26.9,31.6,40.6,35.1
CC(C)(C)c1cc(NC(=O)Nc2ccc(-c3cn4c(n3)sc3cc(OCCN5CCOCC5)ccc34)cc2)no1 [Quizartinib (AC220)],34.4,28.2,54.6,56.1
NCCc1cnc[nH]1.O=P(O)(O)O.O=P(O)(O)O [Histamine Phosphate],73.5,86.1,105,93.8
CCCNC(C)C(=O)Nc1ccccc1C.Cl (stereo not drawn) [Prilocaine hydrochloride],111,120,98.4,106
Cc1ccc(-c2ncc(Cl)cc2-c2ccc(S(C)(=O)=O)cc2)cn1 [Etoricoxib],78.2,107,103,92.3
Cl.O=C1OC(CN2CCOCC2)CN1N=Cc1ccc([N+](=O)[O-])o1 (stereo not drawn) [Furaltadone HCl],64.8,90.9,97.3,103
CN(CCOc1ccc(CC2SC(=O)NC2=O)cc1)c1ccccn1.O=C(O)C=CC(=O)O (stereo not drawn) [Rosiglitazone maleate],98.5,104,96.1,148
CC(=O)C1CCC2C3CC=C4CC(O)CCC4(C)C3CCC12C (stereo not drawn) [Pregnenolone],73.5,90.7,104,89.2
Cc1ccccc1N1C(=O)c2cc(S(N)(=O)=O)c(Cl)cc2NC1C (stereo not drawn) [Metolazone],125,109,110,99.5
Nc1cccc2c1CN(C1CCC(=O)NC1=O)C2=O (stereo not drawn) [Lenalidomide (CC-5013)],89.9,62.3,79.4,124
CCCCC(C)(O)C/C=C/[C@H]1[C@H](O)CC(=O)[C@@H]1CCCCCCC(=O)OC (mixture of isomers) [Misoprostol],76.8,100,115,106
COC1C(OC(N)=O)C(O)C(Oc2ccc3c(O)c(NC(=O)c4ccc([O-])c(CC=C(C)C)c4)c(=O)oc3c2C)OC1(C)C.[Na+] (stereo not drawn) [Novobiocin Sodium],139,106,96.9,99.6
Cc1ccc(NC(=O)c2ccc(CN3CCN(C)CC3)cc2)cc1Nc1nc(-c2cccnc2)cs1 [Masitinib (AB1010)],79.9,54.2,87.2,78.5
COCC1=C(C(=O)OC(C)OC(=O)OC(C)C)N2C(=O)[C@@H](NC(=O)/C(=N\OC)c3csc(N)n3)[C@H]2SC1 (stereo partly drawn) [Cefpodoxime Proxetil],94,98.4,106,129
O=C(O)CCC(=O)O.O=C(OC1CN2CCC1CC2)N1CCc2ccccc2C1c1ccccc1 (stereo not drawn) [Solifenacin succinate],77.4,72.6,98.2,129
CCc1c2c(nc3ccc(OC(=O)N4CCC(N5CCCCC5)CC4)cc13)-c1cc3c(c(=O)n1C2)COC(=O)[C@]3(O)CC [Irinotecan HCl Trihydrate],73.2,73.2,82.5,114
Cc1cc(Nc2cc(CN3CCOCC3)c3nc(C)c(Cc4ccc(Cl)cc4F)n3n2)n[nH]1,85.2,51.3,69.8,153
Cc1ccccc1C(=O)Nc1ccc(C(=O)N2CCCC(O)c3cc(Cl)ccc32)c(C)c1 (stereo not drawn) [Tolvaptan],77.1,94.8,92.1,107
COc1cc2nc(N3CCN(C(=O)C4CCCO4)CC3)nc(N)c2cc1OC.Cl.O.O (stereo not drawn) [Terazosin HCl],86.3,107,98.7,164
C=C[C@]1(C)C[C@@H](OC(=O)CSC2C[C@H]3CC[C@@H](C2)N3C)[C@]2(C)[C@H](C)CC[C@]3(CCC(=O)[C@H]32)[C@@H](C)[C@@H]1O (stereo partly drawn) [Retapamulin],72.6,72,111,103
CC(=O)[C@@]1(O)CC[C@H]2[C@@H]3CCC4=CC(=O)CCC4=C3[C@@H](c3ccc(N(C)C)cc3)C[C@@]21C [Ulipristal],120,107,96.2,109
CC(=O)Nc1ccc(O)cc1 [Acetaminophen],97.6,95.3,118,105
NCCCCCC(=O)O [(6-)ε-Aminocaproic acid],81.5,96.8,86.7,98
